PubChem BioAssay AID256 (DTP/NCI, 2004)
Several values for one entry are separate records, joined by “and”; a condition that tells them apart may be missing. Identical values can stand only once. This continues a long series; more values of the same kind are listed elsewhere. Inconclusive results and toxic doses are left out.

System: CD2F1 mice, L1210 leukemia ip, survival T/C
Assay: NCI In Vivo Anticancer Drug Screen. Data for tumor model L1210 Leukemia (intraperitoneal) in CD2F1 (CDF1) mice
Conditions: endpoint: mean survival time, higher = longer survival
How it was run: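 Mice carrying a transplanted tumor received test compound or vehicle alone. The value is the measurement in the treated group divided by that in the vehicle-treated control group.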

Nc1ncn(C2OC(CO)C(O)C2O)c(=O)n1 (stereo not given)
T/C (dose: 0.19 mg/kg/injection, schedule: Q01DX009 (ip), vehicle: saline): 108 % of control | T/C (dose: 0.38 mg/kg/injection, schedule: Q01DX005 (ip), vehicle: water): 114 % of control | T/C (dose: 0.38 mg/kg/injection, schedule: Q01DX009 (ip), vehicle: saline): 120 % of control | T/C (dose: 0.5 mg/kg/injection, schedule: Q01DX009 (ip), vehicle: saline): 153 % of control | T/C (dose: 0.5 mg/kg/injection, schedule: Q03HX024 (ip), vehicle: saline): 160 % of control | T/C (dose: 0.62 mg/kg/injection, schedule: Q04DX003 (ip), vehicle: saline): 118 % of control and 122 % of control | T/C (dose: 0.75 mg/kg/injection, schedule: Q01DX005 (ip), vehicle: water): 119 % of control | T/C (dose: 0.78 mg/kg/injection, schedule: Q01DX009 (ip), vehicle: saline): 158 % of control and 161 % of control and 166 % of control | T/C (dose: 1.0 mg/kg/injection, schedule: Q01DX005 (ip), vehicle: saline): 152 % of control | T/C (dose: 1.0 mg/kg/injection, schedule: Q01DX009 (ip), vehicle: saline): 154 % of control and 164 % of control and 173 % of control | T/C (dose: 1.0 mg/kg/injection, schedule: Q03HX024 (ip), vehicle: saline): 204 % of control | T/C (dose: 1.25 mg/kg/injection, schedule: Q04DX003 (ip), vehicle: saline): 101 % of control | T/C (dose: 1.5 mg/kg/injection, schedule: Q01DX005 (ip), vehicle: saline): 178 % of control | T/C (dose: 1.5 mg/kg/injection, schedule: Q01DX005 (ip), vehicle: water): 159 % of control and 166 % of control | T/C (dose: 1.56 mg/kg/injection, schedule: Q01DX009 (ip), vehicle: saline): 207 % of control and 208 % of control and 226 % of control | T/C (dose: 1.56 mg/kg/injection, schedule: Q01DX009 (oral), vehicle: saline): 114 % of control | T/C (dose: 1.56 mg/kg/injection, schedule: Q04DX003 (ip), vehicle: saline): 105 % of control and 111 % of control | T/C (dose: 2.0 mg/kg/injection, schedule: Q01DX005 (ip), vehicle: water): 184 % of control and 203 % of control | T/C (dose: 2.0 mg/kg/injection, schedule: Q01DX009 (ip), vehicle: saline): 190 % of control and 193 % of control and 229 % of control | T/C (dose: 2.0 mg/kg/injection, schedule: Q03HX024 (ip), vehicle: saline): 269 % of control | T/C (dose: 2.0 mg/kg/injection, schedule: Q04DX003 (ip), vehicle: saline): 123 % of control | T/C (dose: 2.5 mg/kg/injection, schedule: Q04DX003 (ip), vehicle: saline): 110 % of control | T/C (dose: 2.5 mg/kg/injection, schedule: Q06HX012 (ip), vehicle: saline): 166 % of control and 190 % of control | T/C (dose: 3.0 mg/kg/injection, schedule: Q01DX005 (ip), vehicle: saline): 232 % of control | T/C (dose: 3.0 mg/kg/injection, schedule: Q01DX005 (ip), vehicle: water): 173 % of control and 227 % of control and 235 % of control | T/C (dose: 3.12 mg/kg/injection, schedule: Q01DX009 (ip), vehicle: saline): 212 % of control and 294 % of control | T/C (dose: 3.12 mg/kg/injection, schedule: Q04DX003 (ip), vehicle: saline): 159 % of control | T/C (dose: 3.13 mg/kg/injection, schedule: Q01DX009 (ip), vehicle: saline): 272 % of control | T/C (dose: 3.4 mg/kg/injection, schedule: Q01DX009 (ip), vehicle: saline): 266 % of control and 335 % of control | T/C (dose: 4.0 mg/kg/injection, schedule: Q01DX005 (ip), vehicle: water): 254 % of control and 272 % of control | T/C (dose: 4.0 mg/kg/injection, schedule: Q01DX009 (ip), vehicle: saline): 253 % of control and 276 % of control and 281 % of control | T/C (dose: 4.0 mg/kg/injection, schedule: Q04DX003 (ip), vehicle: saline): 151 % of control | T/C (dose: 5.0 mg/kg/injection, schedule: Q01DX009 (ip), vehicle: saline): 211 % of control and 364 % of control | T/C (dose: 5.0 mg/kg/injection, schedule: Q04DX003 (ip), vehicle: saline): 104 % of control | T/C (dose: 5.0 mg/kg/injection, schedule: Q06HX012 (ip), vehicle: saline): 226 % of control and 235 % of control | T/C (dose: 6.0 mg/kg/injection, schedule: Q01DX005 (ip), vehicle: saline): 195 % of control | T/C (dose: 6.0 mg/kg/injection, schedule: Q01DX005 (ip), vehicle: water): 276 % of control and 308 % of control | T/C (dose: 6.25 mg/kg/injection, schedule: Q04DX003 (ip), vehicle: saline): 161 % of control | T/C (dose: 7.5 mg/kg/injection, schedule: Q04DX003 (ip), vehicle: saline): 168 % of control | T/C (dose: 8.0 mg/kg/injection, schedule: Q01DX009 (ip), vehicle: saline): 119 % of control and 209 % of control and 102 % of control | T/C (dose: 8.0 mg/kg/injection, schedule: Q04DX003 (ip), vehicle: saline): 170 % of control | T/C (dose: 10.0 mg/kg/injection, schedule: Q06HX012 (ip), vehicle: saline): 108 % of control and 109 % of control | T/C (dose: 12.0 mg/kg/injection, schedule: Q01DX005 (ip), vehicle: saline): 209 % of control | T/C (dose: 12.0 mg/kg/injection, schedule: Q01DX005 (ip), vehicle: water): 90 % of control | T/C (dose: 12.5 mg/kg/injection, schedule: Q01DX009 (oral), vehicle: saline): 225 % of control | T/C (dose: 12.5 mg/kg/injection, schedule: Q04DX003 (ip), vehicle: saline): 225 % of control | T/C (dose: 15.0 mg/kg/injection, schedule: Q04DX003 (ip), vehicle: saline): 224 % of control | T/C (dose: 16.0 mg/kg/injection, schedule: Q04DX003 (ip), vehicle: saline): 220 % of control | T/C (dose: 25.0 mg/kg/injection, schedule: Q01DX001 (ip), vehicle: saline): 158 % of control | T/C (dose: 25.0 mg/kg/injection, schedule: Q01DX009 (oral), vehicle: saline): 121 % of control and 124 % of control | T/C (dose: 25.0 mg/kg/injection, schedule: Q04DX003 (ip), vehicle: saline): 120 % of control | T/C (dose: 30.0 mg/kg/injection, schedule: Q04DX003 (ip), vehicle: saline): 156 % of control | T/C (dose: 32.0 mg/kg/injection, schedule: Q04DX003 (ip), vehicle: saline): 219 % of control | T/C (dose: 50.0 mg/kg/injection, schedule: Q01DX001 (ip), vehicle: saline): 173 % of control and 175 % of control | T/C (dose: 60.0 mg/kg/injection, schedule: Q04DX003 (ip), vehicle: saline): 110 % of control
